# Reference: publication PMC12040169 (PLOS Biology, 2025)
# Some of the results follow.
# System: T1, C. trachomatis L2/434/Bu expressing GFP (CTL2-GFP)
# T1 construct: L2/434/Bu GFP intracellular growth in HeLa cells
# Set-up: species or system HeLa; C. trachomatis total inclusion area by high-content imaging, normalised to DMSO
# Settings: total inclusion area; 28.5 h, 10 µM; inhibitor
# In short: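 High-content images of fixed, Hoechst-stained infected cultures supply inclusion area and count (growth) plus nuclei number (viability), complementing bulk GFP/resorufin fluorescence. MIC determination is unchanged from the primary assay.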
row,Compound,% of control remaining
1,CC(C)(C)NC(=O)N/N=C/c1[nH]ncc1Br [CBK017439],57.6877
2,COC(=O)c1ccc(CN2CCCC2)cc1 [CBK029023],114.168
3,O=C(CCn1c(C(F)(F)F)cc2cccnc21)N1CCCC1 [CBK284962],90.629
4,COCC(C)N(C)S(=O)(=O)c1ccc(Cl)nc1 (centres unmarked) [CBK304813],83.9428
5,COc1ccc(C(=O)O)cc1CN1CCOCC1 [CBK287029],107.774
6,N#Cc1cccc(OCC(=O)NCC2(N3CCOCC3)CCSC2)c1 (centres unmarked) [CBK305685],41.6516
7,O=[N+]([O-])c1cccc(CNc2nccnc2-c2ccccc2F)c1 [CBK037416],84.6656
8,Cc1ccc(Nc2ncc3c(n2)CCCC3=O)cc1 [CBK288143],83.5644
9,CC(=O)N1CC2(CCN(C(=O)C(C)(C)C)CC2)Nc2ccccc21 [CBK284448],51.3804
10,Clc1ccc2c(c1)OCC[C@@H]2Oc1cncc(N2CCNCC2)n1 [CBK172313G],67.8371
11,COc1ccc(OC(=O)c2cc(S(=O)(=O)N3CCOCC3)ccc2Cl)cc1 [CBK261655],104.863
12,Cn1cc(C(=O)NC(Cc2ccsc2)c2nccs2)ccc1=O (centres unmarked) [CBK285140],89.5278
13,O=C(Nc1ccc(N2CCN(C(=O)c3cccs3)CC2)cc1)c1ccc(-c2cc3ccccc3oc2=O)cc1 [CBK267340],99.7353
14,Cc1nonc1CN(C)C(=O)c1ccc2c(c1)c(C)c(C)n2C [CBK281442],91.0811
15,CCOc1cc(Br)ccc1S(=O)(=O)NCc1ccc2c(c1)OCO2 [CBK268813],121.686
16,CCc1nn(Cc2ccncc2)c(=O)c2cc3sc(C)cc3n12 [CBK284140],61.1004
17,O=C1Nc2ccccc2Oc2ccc(S(=O)(=O)N3CCOCC3)cc21 [CBK269807],90.8512
18,c1cncc(COc2nccnc2N2CCCC2)c1 [CBK115890],96.9446
19,CCc1nccn1CCCNC(=O)Nc1cccnc1 [CBK306736],73.3832
20,CCC(O)c1nc(CCSC)nn1-c1cc(=O)n(C)c2ccccc12 (centres unmarked) [CBK307711],26.0504
21,CCCN(CC1CCCO1)C(=O)c1cc2ccc(OC)cc2n1C (centres unmarked) [CBK282139],94.2907
22,COCCCNC(=O)Cn1ccc2ccnc(-c3cccs3)c21 [CBK282303],93.4854
23,CC(=O)Nc1ccc(-c2cncc(Nc3ccc4c(c3)OC(F)(F)C(F)(F)O4)n2)cc1 [CBK065726],106.393
24,C=CCOc1ccc(CN(C)Cc2nc3cc(C(=O)O)ccc3c(=O)[nH]2)cc1 [CBK295156],116.587
25,O=c1c(O)c(-c2ccc(F)cc2)oc2ccccc12 [CBK288369],32.6169
26,CCCNC(=O)c1nn2c(C(F)(F)F)cc(-c3ccccc3)nc2c1Cl [CBK051499],83.7126
27,O=C1c2ccccc2C(=O)N1c1ccc(S(=O)(=O)NCCCO)c2ccccc12 [CBK262509],98.3595

row,Compound,% of control remaining
1,O=C(CSc1ncn[nH]1)N/N=C/c1cn(-c2ccccc2)nc1-c1ccccc1 [CBK262850],49.9776
2,Fc1ccc(COc2ccccc2CNCCN2CCOCC2)cc1 [CBK278150C],112.057
3,CN(CCc1ccncc1)C(=O)c1cc2ccc(F)cc2[nH]1 [CBK283215],69.7744
4,COc1ccc2[nH]c3c(=O)n(C)cnc3c2c1 [CBK025870],82.4434
5,CN(C)C[C@@H]1Cc2cccc3cccc(c23)[C@@H]1O [CBK005877C],54.039
6,COc1ccc(CCNC(=O)N2CCCC(C(=O)O)C2)cc1OC (centres unmarked) [CBK161354],73.1534
7,COCCN(Cc1cn2cccc(C(=O)OC)c2n1)Cc1ccco1 [CBK305366],31.1468
8,Cn1c(=O)[nH]c(=O)c2c1nc(CN1CCOCC1)n2Cc1c(F)cccc1Cl [CBK270085],64.5105
9,CC(C)COc1ccc(-c2nonc2NC(=O)c2ccco2)cc1 [CBK299802],94.7767
10,Cc1cc(-c2cn3cc(C(=O)N4CCCC4)nc3c(=O)n2C)c(C)o1 [CBK307300],83.2893
11,CS(=O)(=O)Nc1cc2ccccc2c(-c2ccc3c(c2)CCO3)n1 [CBK073773],102.827
12,CCC(O)CNc1ccc(C(=O)N2CCC(N3CCOCC3)CC2)cn1 (centres unmarked) [CBK306865],49.6235
13,Cc1cc(C[C@@H]2COC[C@H]2NCc2ccc(C)c(C)c2)on1 [CBK284883],70.2783
14,CN1CCN(Cc2ccccc2[N+](=O)[O-])CC1 [CBK261524],106.728
15,CC(C)NC(=O)C[C@@H]1CCNC[C@@H]1Cc1cc(-c2ccccc2)on1 [CBK289147],114.907
16,O=C(O)CCC(=O)N1C[C@@H]2C[C@H](C1)c1c(-c3ccc(Cl)cc3)ccc(=O)n1C2 [CBK289190],97.8551
17,Cc1cc(C)cc(NC(=O)NCCc2cccs2)c1 [CBK044998],97.6797
18,COc1cccc(NC(=O)c2ccnc(Cl)c2)c1 [CBK174661],57.2041
19,Cc1ccc(S(=O)(=O)CC(=O)Nc2nc3ccc(C)cc3s2)cc1 [CBK287705],123.901
20,Cc1ccccc1OC(C)C(=O)Nn1cnnc1 (centres unmarked) [CBK268619],119.853
21,CCOc1cc(NC2CCN(C(=O)C3(CC(C)C)CCC3)CC2)ncn1 [CBK304136],41.6903
22,CCN(CC)C(=O)Cn1nc2c(C)cc3ccccc3n2c1=O [CBK283879],89.9112
23,CC(C)(C(=O)N1CCC(CC(=O)NCCc2ccccc2F)CC1)c1ccc(F)cc1 [CBK286497],112.763
24,CC(C)CN1CCN(S(=O)(=O)c2ccc(C(F)(F)F)cc2Cl)CC1 [CBK062740],120.72
25,Cc1nc(-c2cccnc2)[nH]c(=O)c1CCC(=O)N1CC2CCC1C2 (centres unmarked) [CBK304198],130.98
26,CCc1nc2ccc(C(=O)N3CCN(C)CC3)cn2c1N(C)Cc1nccn1C [CBK146299],91.2965
